Test results: PMC4336329 (PLoS ONE, 2015)
Among all 310,000 compounds or so, about 2,200 (0.71%) showed an effect of 50% or more. Effects have a minus sign here. This is one part of the list.

Biological target: human ether-à-go-go-related gene (hERG) potassium channel (human, UniProt Q12809)
Experiment: primary screen, population patch clamp on CHO cells stably expressing hERG

human ether-à-go-go-related gene (hERG) potassium channel, sequence (Q12809 whole entry, looked up): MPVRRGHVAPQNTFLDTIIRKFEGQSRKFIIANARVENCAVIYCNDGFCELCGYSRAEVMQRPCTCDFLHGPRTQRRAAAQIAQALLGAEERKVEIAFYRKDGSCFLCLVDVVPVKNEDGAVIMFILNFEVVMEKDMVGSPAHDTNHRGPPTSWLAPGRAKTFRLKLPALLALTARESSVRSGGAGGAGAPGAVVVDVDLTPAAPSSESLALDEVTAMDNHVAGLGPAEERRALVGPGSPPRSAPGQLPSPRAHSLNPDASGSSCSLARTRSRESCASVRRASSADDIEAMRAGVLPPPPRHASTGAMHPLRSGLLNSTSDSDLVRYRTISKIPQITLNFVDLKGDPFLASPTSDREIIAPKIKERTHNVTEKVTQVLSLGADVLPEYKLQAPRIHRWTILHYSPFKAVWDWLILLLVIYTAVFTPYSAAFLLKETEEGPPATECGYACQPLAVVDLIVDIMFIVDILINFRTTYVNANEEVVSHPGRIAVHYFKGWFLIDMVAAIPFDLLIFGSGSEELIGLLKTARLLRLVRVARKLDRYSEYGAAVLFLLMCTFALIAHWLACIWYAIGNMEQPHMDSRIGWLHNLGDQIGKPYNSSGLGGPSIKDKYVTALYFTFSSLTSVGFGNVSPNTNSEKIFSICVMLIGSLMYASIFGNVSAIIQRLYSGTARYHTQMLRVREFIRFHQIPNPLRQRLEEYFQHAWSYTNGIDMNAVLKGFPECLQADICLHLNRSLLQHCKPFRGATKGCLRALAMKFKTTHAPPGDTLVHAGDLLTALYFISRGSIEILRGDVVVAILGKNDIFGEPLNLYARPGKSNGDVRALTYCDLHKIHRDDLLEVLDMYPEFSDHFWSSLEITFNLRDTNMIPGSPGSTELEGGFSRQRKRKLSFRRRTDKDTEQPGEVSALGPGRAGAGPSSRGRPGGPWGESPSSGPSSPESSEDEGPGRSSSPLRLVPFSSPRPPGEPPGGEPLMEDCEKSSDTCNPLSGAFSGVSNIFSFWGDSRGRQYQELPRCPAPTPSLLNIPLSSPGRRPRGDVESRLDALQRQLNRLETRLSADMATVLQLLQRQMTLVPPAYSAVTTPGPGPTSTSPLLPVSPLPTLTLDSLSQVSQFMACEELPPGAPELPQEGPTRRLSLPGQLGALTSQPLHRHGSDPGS

| SMILES | hERG current change (%, negative = inhibition) at 1uM [%] |
| --- | --- |
| COc1cccc(-n2c(CN3CCN(c4ccccc4)CC3)nc3ccc([N+](=O)[O-])cc3c2=O)c1 | 9.3 |
| Cc1cccnc1-n1c(CN2C(=O)c3ccccc3C2=O)nc2ccccc2c1=O | 6.82 |
| NC(=O)c1ccccc1NC(=O)CCN1C(=O)c2ccccc2C1=O | 8.94 |
| CCc1nnc(NC(=O)CSc2nc3cccnc3n2Cc2ccccc2)s1 | 11.2 |
| O=C(CSc1nccn1Cc1ccco1)Nc1ccc(F)cc1 | 12.2 |
| Cc1ccc(SCCNC(=O)c2ccc(C)c(S(=O)(=O)Nc3ccccc3C)c2)cc1 | -0.142 |
| Cc1ccccc1C(=O)NCCNC(=O)c1ccco1 | 11.5 |
| CCCN1CCN(c2ccc([N+](=O)[O-])cc2C#N)CC1 | -57.8 |
| CCCCNC(=O)[C@H]1C[C@H]1[C@@H](O)[C@H](CO)NC(=O)[C@H](CC(C)C)NC(=O)OC(C)(C)C | 10.5 |
| Cc1ccc(OCCC(=O)OCC(=O)Nc2cc(S(=O)(=O)N(C)C)ccc2C)cc1 | 12.1 |
| CC(/C=N/n1c(-c2cccnc2)n[nH]c1=S)=C\c1ccco1 | 9.91 |
| CC1CC(C)(C)N(C(=O)CSc2ccc(-c3ccc(F)cc3)nn2)c2ccccc21 (stereo not shown) | 1.38 |
| COc1ccc(CNC(=O)CN(CCC(C)C)S(=O)(=O)c2ccc3c(c2)OCCO3)cc1 | 7.23 |
| COC(=O)Cc1n[nH]c(=S)[nH]c1=O | 17.5 |
| CCN(CC)CCNc1nc(-c2ccco2)c2c(c1C#N)CC(C)(C)OC2 | -39.5 |
| O=C1CC(N2CCN(S(=O)(=O)c3ccc([N+](=O)[O-])cc3)CC2)C(=O)N1c1ccccc1F (stereo not shown) | 1 |
| CCCC/C=C/C(NC(=O)c1ccc(-c2ccccc2)cc1)c1ccccc1 (stereo not shown) | 8.44 |
| Cc1cc(NC(=O)c2nn(C)c(C)c2Br)no1 | 9.71 |
| Cc1ccc2[nH]c(=O)c(CN(Cc3cccs3)Cc3nnnn3CC3CCCO3)cc2c1 (stereo not shown) | -0.0725 |
| COc1ccccc1C(=O)NCCC(=O)Nc1ccc(S(=O)(=O)Nc2ncccn2)cc1 | 2.2 |
| CCCCn1c(-c2ccc(F)c(F)c2)nc2cc3[nH]c(=O)c(C(C)C)nc3cc21 | 11.3 |
| CCC(Sc1nnnn1C)C(=O)Nc1ccc(C(C)=O)cc1 (stereo not shown) | 1.87 |
| COc1nc(-c2ccccc2)cc(-c2ccc3c(c2)OCO3)c1C#N | 7.64 |
| Cc1nc(SCc2ccc([N+](=O)[O-])cc2)n[nH]1 | 8.78 |
| CCOc1ccc(NC(=O)Cn2cc(C(=O)c3ccco3)c3ccccc32)cc1 | -1.85 |
| COc1ccc(C(=O)OC(C)C(=O)NC2CCCCC2C)cc1S(=O)(=O)N1CCOCC1 (stereo not shown) | 1.51 |
| CCN(CC)S(=O)(=O)c1cc(C(=O)N=c2sccn2C)ccc1OC | 4.59 |
| O=C(NC1CC1)C1CCCN(C(=O)NC2CCCCC2)C1 (stereo not shown) | 4.83 |

| SMILES | hERG current change (%, negative = inhibition) at 1uM [%] |
| --- | --- |
| Cc1ccc(CCC2C3=C(CCCC3=O)OC3=C2C(=O)CCC3)cc1 | 12.6 |
| Fc1ccc(CNC(=S)NC2CCCCCC2)cc1 | 11.6 |
| COc1cc(O)c(CCO)c2c1C(=O)C[C@@H](C)O2 | -14.3 |
| Cc1csc2ncc(C(=O)NCc3ccco3)c(=O)n12 | 5.98 |
| CC(C)c1nnc(NC(=O)CCC(=O)NCC2CCCO2)s1 (stereo not shown) | 5.75 |
| CCn1nnc(NC(=O)c2ccc(-c3ccccc3[N+](=O)[O-])o2)n1 | 8.96 |
| O=C1NCCN(Cc2ccc(Cl)c(F)c2)C1CC(=O)N1CCc2ccccc2C1 (stereo not shown) | 3.14 |
| CC(=O)NC1C(=O)N(CCc2ccccc2)c2ccccc21 (stereo not shown) | 7.87 |
| CC(=O)c1cccc(Oc2cc(NN3CCCCC3)c([N+](=O)[O-])cc2[N+](=O)[O-])c1 | 12.8 |
| COc1ccc(S(=O)(=O)Nc2ccccc2OC)cc1NC(=O)Cc1cccs1 | 9.07 |
| C/C(=N\NC(=O)CN(c1ccccc1)S(=O)(=O)c1ccccc1[N+](=O)[O-])C(C)(C)C | 0.526 |
| CCOC(=O)c1nc(-c2ccc(OC)c(OC)c2)no1 | 3.69 |
| CCOC(=O)COc1ccc(/C=C2\NC(=S)N(CC)C2=O)cc1 | 8.45 |
| O=C(COc1ccc([N+](=O)[O-])cc1)Nc1cc(S(=O)(=O)N2CCCCC2)ccc1N1CCCCC1 | 12.4 |
| O=C(Cc1ccccc1F)OCC(=O)N1CCN(C(=O)c2ccco2)CC1 | -1.25 |
| Cc1cccc(Cn2c(N3CCc4ccccc4C3)nc3c2c(=O)[nH]c(=O)n3C)c1 | 1.68 |
| CC(C)(C)c1cc(OS(C)(=O)=O)ccc1O | 13.3 |
| CCN(C(=O)CN1CCN(c2ccc(OC)cc2)CC1)c1c(N)n(Cc2ccccc2)c(=O)[nH]c1=O | 2.57 |
| CCOC(=O)c1cnc(-n2nc(C)cc2C)nc1NNc1cc(C)nc(-c2ccccc2)n1 | 5.3 |
| Cc1ccc(/C=N/Nc2ccc3ccccc3n2)o1 | -7.77 |
| CC(=O)n1cc([C@@H]2C=C(C(=O)O)O[C@H](OCc3ccc(CO)cc3)C2)c2ccccc21 | 4.15 |
| Cc1ccc2nc(SCC(=O)N3CC(C)OC(C)C3)nc(=O)n2c1 (stereo not shown) | 4.64 |
| CN1C(=O)/C(=C/c2ccco2)SC1=Nc1cccc(C(=O)O)c1 | 18 |
| COc1cccc(NS(=O)(=O)c2ccc(OC)c(OC)c2)c1 | -0.905 |
| CC1=CC(C)(C)n2c(O)c(N=NC(N)=S)c3c(C)ccc1c32 | 10.6 |
| O=C(OCc1nc2ccccc2s1)c1cccc(N2C(=O)CCC2=O)c1 | 17.5 |
| COc1cccc(C(C)NC(=O)Cc2cccs2)c1 (stereo not shown) | 16 |
